Source: US20200131161A1, “NOVEL POCHONIOLIDE COMPOUND AND USE THEREOF” (THE KITASATO INSTITUTE, priority 2017, published 2020)

Columns and labels:
[1] = Singlet oxygen scavenging activity test; conditions: compounds dissolved in acetone at 0.25 mg/ml; FIG. 6
Experimental: (§1) Pochoniolides A, B, and C were evaluated in terms of hydroxyl radical (.OH) and singlet oxygen (^1O2) scavenging activity using dihydroquercetin as a positive control. Active oxygen species were measured in accordance with the method described in Yusuke Katsuda et al., 2015, PLOS ONE, doi:10.1371/journal.pone.0138394. In the case of the hydroxyl radical (.OH) scavenging activity test, compounds were dissolved in acetone at 0.5 mg/ml. In the case of the singlet oxygen (^1O2) scavenging activity test, compounds were dissolved in acetone at 0.25 mg/ml. Thus, hydroxyl radical (.OH) scavenging activity and singlet oxygen (^1O2) scavenging activity were evaluated.

[2] = Hydroxyl radical scavenging activity test (DMPO); conditions: compounds dissolved in acetone at 0.5 mg/ml; FIG. 5
Experimental: as §1

| Compound | singlet oxygen (1O2) scavenging activity level (rank order) [1] | hydroxyl radical (.OH) scavenging activity level (rank order) [2] |
| --- | --- | --- |
| O=C1c2c(O)cc(O)cc2O[C@H](c2ccc(O)c(O)c2)[C@H]1O [dihydroquercetin, reference compound] | lower in the order of pochoniolide B, pochoniolide A, pochoniolide C, and dihydroquercetin | lower in the order of pochoniolide C, pochoniolide B, pochoniolide A, and dihydroquercetin |
| O=C(O)CC1OC(=O)C=C1C1Oc2cc(O)cc(O)c2C(=O)C1O (centres unmarked) [pochoniolide C] | lower in the order of pochoniolide B, pochoniolide A, pochoniolide C, and dihydroquercetin | lower in the order of pochoniolide C, pochoniolide B, pochoniolide A, and dihydroquercetin |
| pochoniolide B | lower in the order of pochoniolide B, pochoniolide A, pochoniolide C, and dihydroquercetin | lower in the order of pochoniolide C, pochoniolide B, pochoniolide A, and dihydroquercetin |
| O=C(O)CC1OC(=O)C=C1c1coc2cc(O)cc(O)c2c1=O (centres unmarked) [pochoniolide A] | lower in the order of pochoniolide B, pochoniolide A, pochoniolide C, and dihydroquercetin | lower in the order of pochoniolide C, pochoniolide B, pochoniolide A, and dihydroquercetin |
